Test results reported in PMC12820563.
The list shows a part of the results. The list includes weakly bound sequences.

Target: T1, MBP-FoxP3dN (UniProt Q99JB6)
T1 sequence: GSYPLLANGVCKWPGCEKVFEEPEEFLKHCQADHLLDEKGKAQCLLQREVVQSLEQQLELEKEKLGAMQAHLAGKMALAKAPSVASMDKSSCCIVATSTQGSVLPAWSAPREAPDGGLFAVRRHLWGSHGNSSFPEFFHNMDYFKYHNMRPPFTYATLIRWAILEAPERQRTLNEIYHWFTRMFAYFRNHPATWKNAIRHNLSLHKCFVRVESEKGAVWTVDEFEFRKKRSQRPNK
Assay: PD-seq (MBP pull-down with sequencing)
Conditions: 20 mM Tris-HCl pH 7.5, 100 mM NaCl, 1.5 mM MgCl2, 0.4 uM protein, 0.1 uM dsDNA library, 30 min, room temperature, amylose pull-down; high values mean tight binding; double strand, one strand shown

Sequence	binding signal (RPM ratio (pull-down/input))
GATGATTGTTCTCCCAGCTGATGAATTCATATAATCGAGTAAACAAATTTTCCTAATCTTTCTGTTCAAGCGCCATCTAC	0.409
GATGATTGTTCTCCCAGCTGATGAATTCGATGGCTCGAGTAAACAAATTTTCCTAATCTTTCTGTTCAAGCGCCATCTAC	0.944
GATGATTGTTCTCCCAGCTGATGAATTTAAGAGGTCGAGTAAACAAATTTTCCTAATCTTTCTGTTCAAGCGCCATCTAC	0.231
GATGATTGTTCTCCCAGCTGATGAATTCATTCAATCGAGTAAACAAATTTTCCTAATCTTTCTGTTCAAGCGCCATCTAC	0.229
GATGATTGTTCTCCCAGCTGATGAATTTTCGTTCTCGAGTAAACAAATTTTCCTAATCTTTCTGTTCAAGCGCCATCTAC	0.417
GATGATTGTTCTCCCAGCTGATGAATTAGTGCGGTCGAGTAAACAAATTTTCCTAATCTTTCTGTTCAAGCGCCATCTAC	0.534
GATGATTGTTCTCCCAGCTGATGAATTGTGAATCTCGAGTAAACAAATTTTCCTAATCTTTCTGTTCAAGCGCCATCTAC	2.72
GATGATTGTTCTCCCAGCTGATGAATTCGCTGTCTCGAGTAAACAAATTTTCCTAATCTTTCTGTTCAAGCGCCATCTAC	1.63
GATGATTGTTCTCCCAGCTGATGAATTACTCAGCTCGAGTAAACAAATTTTCCTAATCTTTCTGTTCAAGCGCCATCTAC	0.252
GATGATTGTTCTCCCAGCTGATGAATTATTAGAATCGAGTAAACAAATTTTCCTAATCTTTCTGTTCAAGCGCCATCTAC	0.298
GATGATTGTTCTCCCAGCTGATGAATTAACAGAATCGAGTAAACAAATTTTCCTAATCTTTCTGTTCAAGCGCCATCTAC	0.243
GATGATTGTTCTCCCAGCTGATGAATTCGTCTTCTCGAGTAAACAAATTTTCCTAATCTTTCTGTTCAAGCGCCATCTAC	0.573
GATGATTGTTCTCCCAGCTGATGAATTTGAGGGATCGAGTAAACAAATTTTCCTAATCTTTCTGTTCAAGCGCCATCTAC	0.363
GATGATTGTTCTCCCAGCTGATGAATTCTACGCCTCGAGTAAACAAATTTTCCTAATCTTTCTGTTCAAGCGCCATCTAC	0.474
GATGATTGTTCTCCCAGCTGATGAATTTACCTCTTCGAGTAAACAAATTTTCCTAATCTTTCTGTTCAAGCGCCATCTAC	0.488
GATGATTGTTCTCCCAGCTGATGAATTCTCCTAATCGAGTAAACAAATTTTCCTAATCTTTCTGTTCAAGCGCCATCTAC	0.206
GATGATTGTTCTCCCAGCTGATGAATTACATTAATCGAGTAAACAAATTTTCCTAATCTTTCTGTTCAAGCGCCATCTAC	0.425
GATGATTGTTCTCCCAGCTGATGAATTTTCGTATTCGAGTAAACAAATTTTCCTAATCTTTCTGTTCAAGCGCCATCTAC	1.22
GATGATTGTTCTCCCAGCTGATGAATTCCCTTACTCGAGTAAACAAATTTTCCTAATCTTTCTGTTCAAGCGCCATCTAC	0.294
GATGATTGTTCTCCCAGCTGATGAATTATCTTGTTCGAGTAAACAAATTTTCCTAATCTTTCTGTTCAAGCGCCATCTAC	0.54
GATGATTGTTCTCCCAGCTGATGAATTCCCATTTTCGAGTAAACAAATTTTCCTAATCTTTCTGTTCAAGCGCCATCTAC	0.336

Sequence	binding signal (RPM ratio (pull-down/input))
GATGATTGTTCTCCCAGCTGATGAATTTCAAATTTCGAGTAAACAAATTTTCCTAATCTTTCTGTTCAAGCGCCATCTAC	0.227
GATGATTGTTCTCCCAGCTGATGAATTCGCCTATTCGAGTAAACAAATTTTCCTAATCTTTCTGTTCAAGCGCCATCTAC	0.603
GATGATTGTTCTCCCAGCTGATGAATTCTTCGAGTCGAGTAAACAAATTTTCCTAATCTTTCTGTTCAAGCGCCATCTAC	0.232
GATGATTGTTCTCCCAGCTGATGAATTTCGAAGGTCGAGTAAACAAATTTTCCTAATCTTTCTGTTCAAGCGCCATCTAC	0.237
GATGATTGTTCTCCCAGCTGATGAATTCAAAATCTCGAGTAAACAAATTTTCCTAATCTTTCTGTTCAAGCGCCATCTAC	0.23
GATGATTGTTCTCCCAGCTGATGAATTATAGGGTTCGAGTAAACAAATTTTCCTAATCTTTCTGTTCAAGCGCCATCTAC	0.431
GATGATTGTTCTCCCAGCTGATGAATTTTCGCCCTCGAGTAAACAAATTTTCCTAATCTTTCTGTTCAAGCGCCATCTAC	0.493
GATGATTGTTCTCCCAGCTGATGAATTATGGGTTTCGAGTAAACAAATTTTCCTAATCTTTCTGTTCAAGCGCCATCTAC	0.848
GATGATTGTTCTCCCAGCTGATGAATTTGATCAGTCGAGTAAACAAATTTTCCTAATCTTTCTGTTCAAGCGCCATCTAC	0.298
GATGATTGTTCTCCCAGCTGATGAATTACTTATATCGAGTAAACAAATTTTCCTAATCTTTCTGTTCAAGCGCCATCTAC	0.411
GATGATTGTTCTCCCAGCTGATGAATTCTCCACATCGAGTAAACAAATTTTCCTAATCTTTCTGTTCAAGCGCCATCTAC	0.237
GATGATTGTTCTCCCAGCTGATGAATTTGTAGGCTCGAGTAAACAAATTTTCCTAATCTTTCTGTTCAAGCGCCATCTAC	3.58
GATGATTGTTCTCCCAGCTGATGAATTCTTGAGCTCGAGTAAACAAATTTTCCTAATCTTTCTGTTCAAGCGCCATCTAC	0.195
GATGATTGTTCTCCCAGCTGATGAATTACCCCGGTCGAGTAAACAAATTTTCCTAATCTTTCTGTTCAAGCGCCATCTAC	0.202
GATGATTGTTCTCCCAGCTGATGAATTTAGGGGCTCGAGTAAACAAATTTTCCTAATCTTTCTGTTCAAGCGCCATCTAC	0.48
GATGATTGTTCTCCCAGCTGATGAATTGGCAGCTTCGAGTAAACAAATTTTCCTAATCTTTCTGTTCAAGCGCCATCTAC	0.472
GATGATTGTTCTCCCAGCTGATGAATTCCAAGAGTCGAGTAAACAAATTTTCCTAATCTTTCTGTTCAAGCGCCATCTAC	0.219
GATGATTGTTCTCCCAGCTGATGAATTGCTCTATTCGAGTAAACAAATTTTCCTAATCTTTCTGTTCAAGCGCCATCTAC	0.572
GATGATTGTTCTCCCAGCTGATGAATTTAGGTGTTCGAGTAAACAAATTTTCCTAATCTTTCTGTTCAAGCGCCATCTAC	1.17
GATGATTGTTCTCCCAGCTGATGAATTTCATCTATCGAGTAAACAAATTTTCCTAATCTTTCTGTTCAAGCGCCATCTAC	0.653
GATGATTGTTCTCCCAGCTGATGAATTCTCCTGGTCGAGTAAACAAATTTTCCTAATCTTTCTGTTCAAGCGCCATCTAC	0.156

Sequence	binding signal (RPM ratio (pull-down/input))
GATGATTGTTCTCCCAGCTGATGAATTGCACGCGTCGAGTAAACAAATTTTCCTAATCTTTCTGTTCAAGCGCCATCTAC	1.28
GATGATTGTTCTCCCAGCTGATGAATTTACACAGTCGAGTAAACAAATTTTCCTAATCTTTCTGTTCAAGCGCCATCTAC	0.436
GATGATTGTTCTCCCAGCTGATGAATTTTTTGCCTCGAGTAAACAAATTTTCCTAATCTTTCTGTTCAAGCGCCATCTAC	0.432
GATGATTGTTCTCCCAGCTGATGAATTTCCTACATCGAGTAAACAAATTTTCCTAATCTTTCTGTTCAAGCGCCATCTAC	0.259
GATGATTGTTCTCCCAGCTGATGAATTAGTGGCATCGAGTAAACAAATTTTCCTAATCTTTCTGTTCAAGCGCCATCTAC	1.8
GATGATTGTTCTCCCAGCTGATGAATTCACCCGTTCGAGTAAACAAATTTTCCTAATCTTTCTGTTCAAGCGCCATCTAC	0.276
GATGATTGTTCTCCCAGCTGATGAATTGCATGGTTCGAGTAAACAAATTTTCCTAATCTTTCTGTTCAAGCGCCATCTAC	1.89
GATGATTGTTCTCCCAGCTGATGAATTAGCGAAATCGAGTAAACAAATTTTCCTAATCTTTCTGTTCAAGCGCCATCTAC	0.42
GATGATTGTTCTCCCAGCTGATGAATTTTGCTGTTCGAGTAAACAAATTTTCCTAATCTTTCTGTTCAAGCGCCATCTAC	5.2
GATGATTGTTCTCCCAGCTGATGAATTGCAGGTTTCGAGTAAACAAATTTTCCTAATCTTTCTGTTCAAGCGCCATCTAC	0.872
GATGATTGTTCTCCCAGCTGATGAATTAACTCTCTCGAGTAAACAAATTTTCCTAATCTTTCTGTTCAAGCGCCATCTAC	0.285
GATGATTGTTCTCCCAGCTGATGAATTGATGTCGTCGAGTAAACAAATTTTCCTAATCTTTCTGTTCAAGCGCCATCTAC	0.945
GATGATTGTTCTCCCAGCTGATGAATTTTGGTTTTCGAGTAAACAAATTTTCCTAATCTTTCTGTTCAAGCGCCATCTAC	1.13
GATGATTGTTCTCCCAGCTGATGAATTGGAACCGTCGAGTAAACAAATTTTCCTAATCTTTCTGTTCAAGCGCCATCTAC	0.224
GATGATTGTTCTCCCAGCTGATGAATTACGTTAGTCGAGTAAACAAATTTTCCTAATCTTTCTGTTCAAGCGCCATCTAC	1.14
GATGATTGTTCTCCCAGCTGATGAATTCGCTTAATCGAGTAAACAAATTTTCCTAATCTTTCTGTTCAAGCGCCATCTAC	0.35
GATGATTGTTCTCCCAGCTGATGAATTTGGGGGATCGAGTAAACAAATTTTCCTAATCTTTCTGTTCAAGCGCCATCTAC	0.424
GATGATTGTTCTCCCAGCTGATGAATTCTTCTTGTCGAGTAAACAAATTTTCCTAATCTTTCTGTTCAAGCGCCATCTAC	0.303
GATGATTGTTCTCCCAGCTGATGAATTTAGTCTATCGAGTAAACAAATTTTCCTAATCTTTCTGTTCAAGCGCCATCTAC	1.1
GATGATTGTTCTCCCAGCTGATGAATTCTTACCCTCGAGTAAACAAATTTTCCTAATCTTTCTGTTCAAGCGCCATCTAC	0.224
GATGATTGTTCTCCCAGCTGATGAATTGAAATTATCGAGTAAACAAATTTTCCTAATCTTTCTGTTCAAGCGCCATCTAC	0.534
